Assay in all cases: glycan array binding signal (z-score within array); higher = stronger binding
Holding throughout (conditions): glycan notation: IUPAC condensed, linker removed

In test [1] the target is Gal(b1-4)GlcNAc(b1-2)Man(a1-6)[GlcNAc(b1-2)Man(a1-3)]Man(b1-4)GlcNAc(b1-4)GlcNAc. The procedure, abridged:
(§1)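 The binding signal is a Z-score computed within each array and averaged over linkers. Arrays of the same protein sequence at different concentrations or buffers were also averaged together. Data originate from 3228 arrays in the Consortium for Functional Glycomics database, kept only where the protein sequence was available.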

Test [2] deals with Gal(b1-4)GlcNAc(b1-2)Man(a1-6)[Man(a1-3)]Man(b1-4)GlcNAc(b1-4)GlcNAc. The procedure, abridged:
as §1

The target of test [3] is Gal(b1-4)GlcNAc(b1-2)[Gal(b1-4)GlcNAc(b1-4)]Man(a1-3)[Gal(b1-4)GlcNAc(b1-2)Man(a1-6)]Man(b1-4)GlcNAc(b1-4)GlcNAc. In outline: as §1
Test [4] deals with Gal(b1-4)GlcNAc(b1-2)[Gal(b1-4)GlcNAc(b1-4)]Man(a1-3)[Gal(b1-4)GlcNAc(b1-2)[Gal(b1-4)GlcNAc(b1-6)]Man(a1-6)]Man(b1-4)GlcNAc(b1-4)GlcNAc. The procedure, abridged:
as §1

Test [5] addresses Gal(b1-4)GlcNAc(b1-2)[Gal(b1-4)GlcNAc(b1-4)]Man(a1-3)[GlcNAc(b1-4)][Gal(b1-4)GlcNAc(b1-2)Man(a1-6)]Man(b1-4)GlcNAc(b1-4)GlcNAc. In outline: as §1
The target in test [6] is Gal(b1-4)GlcNAc(b1-2)[Gal(b1-4)GlcNAc(b1-4)]Man(a1-3)[GlcNAc(b1-4)][Gal(b1-4)GlcNAc(b1-2)[Gal(b1-4)GlcNAc(b1-6)]Man(a1-6)]Man(b1-4)GlcNAc(b1-4)GlcNAc. In outline: as §1
Test [7] concerns the target Gal(b1-4)GlcNAc(b1-2)[Gal(b1-4)GlcNAc(b1-6)]Man(a1-6)[Gal(b1-4)GlcNAc(b1-2)Man(a1-3)]Man(b1-4)GlcNAc(b1-4)GlcNAc. The procedure, abridged:
as §1

Test [8] addresses Gal(b1-4)GlcNAc(b1-2)[Gal(b1-4)GlcNAc(b1-6)]Man(a1-6)[Gal(b1-4)GlcNAc(b1-2)Man(a1-3)]Man(b1-4)GlcNAc(b1-4)[Fuc(a1-6)]GlcNAc. In outline: as §1
For test [9], the target named is Gal(b1-4)GlcNAc(b1-2)[Gal(b1-4)GlcNAc(b1-6)]Man(a1-6)[GlcNAc(b1-4)][Gal(b1-4)GlcNAc(b1-2)Man(a1-3)]Man(b1-4)GlcNAc(b1-4)GlcNAc. The procedure, abridged:
as §1

In test [10] the target is Gal(b1-4)GlcNAc(b1-2)[Gal(b1-4)GlcNAc(b1-6)]Man(a1-6)[GlcNAc(b1-4)][Gal(b1-4)GlcNAc(b1-2)[Gal(b1-4)GlcNAc(b1-4)]Man(a1-3)]Man(b1-4)GlcNAc(b1-4)[Fuc(a1-6)]GlcNAc. In outline: as §1
Test [11] addresses Gal(b1-4)GlcNAc(b1-3)Gal(b1-3)GalNAc. In outline: as §1
Test [12] concerns the target Gal(b1-4)GlcNAc(b1-3)Gal(b1-3)GlcNAc. In outline: as §1
The target of test [13] is Gal(b1-4)GlcNAc(b1-3)Gal(b1-4)Glc. In outline: as §1
The target of test [14] is Gal(b1-4)GlcNAc(b1-3)Gal(b1-4)GlcNAc. In outline: as §1
Test [15] has as its target Gal(b1-4)GlcNAc(b1-3)Gal(b1-4)GlcNAc(b1-2)Man(a1-3)[Gal(b1-4)GlcNAc(b1-3)Gal(b1-4)GlcNAc(b1-2)Man(a1-6)]Man(b1-4)GlcNAc(b1-4)GlcNAc. The procedure, abridged: as §1
The target in test [16] is Gal(b1-4)GlcNAc(b1-3)Gal(b1-4)GlcNAc(b1-2)Man(a1-3)[Gal(b1-4)GlcNAc(b1-3)Gal(b1-4)GlcNAc(b1-2)Man(a1-6)]Man(b1-4)GlcNAc(b1-4)[Fuc(a1-6)]GlcNAc. In outline:
as §1

Test [17] addresses Gal(b1-4)GlcNAc(b1-3)Gal(b1-4)GlcNAc(b1-2)[Gal(b1-4)GlcNAc(b1-3)Gal(b1-4)GlcNAc(b1-6)]Man(a1-6)[Gal(b1-4)GlcNAc(b1-3)Gal(b1-4)GlcNAc(b1-2)Man(a1-3)]Man(b1-4)GlcNAc(b1-4)GlcNAc. In outline: as §1
Test [18] has as its target Gal(b1-4)GlcNAc(b1-3)Gal(b1-4)GlcNAc(b1-2)[Gal(b1-4)GlcNAc(b1-3)Gal(b1-4)GlcNAc(b1-6)]Man(a1-6)[Gal(b1-4)GlcNAc(b1-3)Gal(b1-4)GlcNAc(b1-2)Man(a1-3)]Man(b1-4)GlcNAc(b1-4)[Fuc(a1-6)]GlcNAc. The procedure, abridged: as §1
The target in test [19] is Gal(b1-4)GlcNAc(b1-3)Gal(b1-4)GlcNAc(b1-3)Gal(b1-4)GlcNAc. The procedure, abridged:
as §1

Test [20] concerns the target Gal(b1-4)GlcNAc(b1-3)Gal(b1-4)GlcNAc(b1-3)Gal(b1-4)GlcNAc(b1-2)Man(a1-3)[Gal(b1-4)GlcNAc(b1-3)Gal(b1-4)GlcNAc(b1-3)Gal(b1-4)GlcNAc(b1-2)Man(a1-6)]Man(b1-4)GlcNAc(b1-4)GlcNAc. The procedure, abridged:
as §1

The target of test [21] is Gal(b1-4)GlcNAc(b1-3)Gal(b1-4)GlcNAc(b1-3)Gal(b1-4)GlcNAc(b1-2)Man(a1-3)[Gal(b1-4)GlcNAc(b1-3)Gal(b1-4)GlcNAc(b1-3)Gal(b1-4)GlcNAc(b1-2)Man(a1-6)]Man(b1-4)GlcNAc(b1-4)[Fuc(a1-6)]GlcNAc. The procedure, abridged: as §1
Test [22] concerns the target Gal(b1-4)GlcNAc(b1-3)Gal(b1-4)GlcNAc(b1-3)Gal(b1-4)GlcNAc(b1-2)[Gal(b1-4)GlcNAc(b1-3)Gal(b1-4)GlcNAc(b1-3)Gal(b1-4)GlcNAc(b1-6)]Man(a1-6)[Gal(b1-4)GlcNAc(b1-3)Gal(b1-4)GlcNAc(b1-3)Gal(b1-4)GlcNAc(b1-2)Man(a1-3)]Man(b1-4)GlcNAc(b1-4)[Fuc(a1-6)]GlcNAc. In outline: as §1

The other results are listed elsewhere or left out.

B1: GNA (Galanthus nivalis), P30617 (protein)
chain: MAKASLLILAAIFLGVITPSCLSDNILYSGETLSTGEFLNYGSFVFIMQEDCNLVLYDVDKPIWATNTGGLSRSCFLSMQTDGNLVVYNPSNKPIWASNTGGQNGNYVCILQKDRNVVIYGTDRWATGTHTGLVGIPASPPSEKYPTAGKIKLVTAK
Regarding B1, the “glycan array binding signal (z-score)” value in [1] was 0.345; in test [2], 3.11; in test [3], -0.05; in test [4], 0.166; in test [5], -0.167; in test [6], -0.176. The “glycan array binding signal (z-score)” value in test [7] was -0.183; in [8] it was -0.161; in test [9], -0.156; in test [10], -0.172; in test [11] it was -0.118; in [12], -0.174. In addition, the “glycan array binding signal (z-score)” value in [13] was -0.076; in test [14] it was -0.131; in test [15], 0.05; in test [16], 0.087; in test [17], -0.093; in [18], -0.113. Further, the “glycan array binding signal (z-score)” value in test [19] is -0.163; in [20], 0.061; in [21], -0.039; in test [22] it was -0.116.
